{"source": "PubChem BioAssay AID504444", "about": "(National Center for Advancing Translational Sciences (NCATS), 2011)", "note": "Among all 360,000 compounds or so, about 7,500 (2.1%) were called active. Not shown: some 20% with an inconclusive outcome. The call rests on the fitted dose curve; in most records, active means well fitted inhibition curve with a large enough effect; inconclusive means small, poorly fitted or top-dose-only effect, or effect the other way; inactive means flat fitted curve, though single readings scatter. Only a part is listed here, and it is no random draw. On the % scale 0 is the no-effect control and ±100 the full control effect; potency means the concentration at half of the fitted maximal effect.", "data": [{"experiment": "Nrf2 qHTS screen for inhibitors; further: nearly all actives have a fitted effect of over 60% in size", "conditions": "A549 ARE-Fluc reporter, luciferase luminescence, 18-24 h; series mostly up to 46 µM; activity change, negative = inhibition: at the top concentration", "summary_of_the_method": "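Reporter: ARE-Fluc in A549. Exposure: 18-24 h, 37 °C, 5% CO2, 5% FBS OPTI-MEM. Readouts: fluorescent cytotoxicity (CellTiter-Fluor), then luminescent Nrf2 signal after BugLite.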", "values": [{"smiles": "Cc1cc(C)cc(NC(=O)NCC2CCN(Cc3cc(C)ccc3C)CC2)c1", "activity change, negative = inhibition": "inactive: 8.93%"}, {"smiles": "COc1ccc(-n2c(=O)c3c(C)c(C)sc3n(Cc3ccc(F)cc3)c2=O)c(OC)c1", "activity change, negative = inhibition": "inactive: -7.91%"}, {"smiles": "CCN1C(=O)[C@@H]2[C@@H](c3ccc(-c4ccc(Cl)c(Cl)c4)c(OC)c3)N3CCCC[C@@]3(C(=O)OC)[C@@H]2C1=O", "activity change, negative = inhibition": "inactive: -28.6%"}, {"smiles": "Cc1c(C)n(C)c2ccc(C(=O)NCCCN3CCCCC3)cc12", "activity change, negative = inhibition": "inactive: 0.29%"}, {"smiles": "O=C1Nc2ccc(Br)cc2/C1=N\\N=C\\C1=C(N2CCOCC2)C(=C/c2ccccc2)/CC1", "activity change, negative = inhibition": "inactive: -0.468%"}, {"smiles": "CC1(C2CC2)NC(=O)N(CC(=O)N2CCN(c3cccc(C(F)(F)F)c3)CC2)C1=O", "note": "(stereo not drawn)", "Potency": "active: 11.6 µM"}, {"smiles": "NC(=O)OCC(COC(N)=O)c1ccccc1", "activity change, negative = inhibition": "inactive: 1.92%"}, {"smiles": "CC(=O)O[C@]1(C(C)=O)CCC2C3C=C(C)C4=CC(=O)CC[C@]4(C)C3CC[C@@]21C", "note": "(stereo partly drawn)", "Potency": "active: 0.259 µM"}, {"smiles": "Cc1ccccc1C(=O)Nc1nnc(S(=O)(=O)N2CCCCCC2)s1", "activity change, negative = inhibition": "inactive: 19.1%"}, {"smiles": "COc1ccc(Cl)cc1NC(=O)c1sc2nc(C)nc(N3CCOCC3)c2c1C", "Potency": "active: 20.6 µM"}, {"smiles": "C[C@@H]1CC[C@@]2(O[C@@H](CCO)C[C@@H](O)[C@@H]2O)O1", "activity change, negative = inhibition": "inactive: 15%"}, {"smiles": "CN1C(=O)Cc2cc(S(=O)(=O)NCCc3ccccc3)ccc21", "activity change, negative = inhibition": "inactive: 29.7%"}, {"smiles": "CC(=O)c1ccc(N2CCN(S(=O)(=O)c3ccc(-c4cc(C)no4)s3)CC2)cc1", "activity change, negative = inhibition": "inactive: 4.57%"}, {"smiles": "CCOC(=O)C1CCN(S(=O)(=O)c2ccc3c(c2)NC(=O)C(C)C(=O)N3)CC1", "note": "(stereo not drawn)", "activity change, negative = inhibition": "inactive: -7.22%"}, {"smiles": "CCCCNC(=O)CCc1c(C)nc2c(c(C)nn2-c2ccccc2)c1C", "activity change, negative = inhibition": "inactive: -24.2%"}, {"smiles": "O=C1S/C(=C/c2ccccc2)C(=O)N1CC(O)Cn1c2ccccc2c2ccccc21", "note": "(stereo not drawn)", "activity change, negative = inhibition": "inactive: 12.4%"}, {"smiles": "Cc1sc2ncnc(N3CCN(c4ncccn4)CC3)c2c1C", "Potency": "active: 14.6 µM"}, {"smiles": "Cc1cccc(C)c1Nc1c(-c2ccc(N3CCOCC3)cc2)nc2ncccn12", "activity change, negative = inhibition": "inactive: -10.5%"}, {"smiles": "CC(=O)c1ccc(NS(=O)(=O)c2ccc(C(C)(C)C)cc2)cc1", "Potency": "active: 8.2 µM"}, {"smiles": "O=C(C1=C[C@@H](c2csc3ccccc23)C[C@@H](OCCCCO)O1)N1CCN(Cc2ccc3c(c2)OCO3)CC1", "activity change, negative = inhibition": "inactive: -15.1%"}, {"smiles": "Cc1cc(C)nc(NS(=O)(=O)c2ccc(N/C=C/C(=O)c3ccc(Cl)cc3)cc2)n1", "activity change, negative = inhibition": "inactive: -3.67%"}, {"smiles": "CC1=C/C(=C(\\c2ccc(O)c(C)c2)c2ccccc2S(=O)(=O)O)C=CC1=O", "activity change, negative = inhibition": "inactive: 5.92%"}, {"smiles": "COc1ccc(N2C(=O)c3ccccc3C2=O)cc1", "activity change, negative = inhibition": "inactive: 1.39%"}, {"smiles": "O=C(O)CSCC(=O)Nc1ccc(C2CCCCC2)cc1", "Potency": "active: 5.17 µM"}, {"smiles": "CCNC(=S)N(CCc1cccc(C)c1)Cc1cc2cc(OC)c(OC)cc2[nH]c1=O", "Potency": "active: 23.1 µM"}, {"smiles": "CCCC1=NN(c2ccc([N+](=O)[O-])cc2)C(=O)/C1=C/N(C)C", "activity change, negative = inhibition": "inactive: 16.1%"}, {"smiles": "Cc1ccc(N(C)C(=O)CC(C)S(=O)(=O)c2ccc3c(c2)NC(=O)CO3)cc1", "note": "(stereo not drawn)", "activity change, negative = inhibition": "inactive: 13.9%"}, {"smiles": "COc1ccc(C2C3=C(COC3=O)Oc3cc4c(cc32)OCO4)cc1OC", "note": "(stereo not drawn)", "activity change, negative = inhibition": "inactive: 18.3%"}, {"smiles": "COC(=O)C1=C(C(=O)OC)[C@]2([C@@H]3CC=CCN[C@@H](Cc4ccccc4)C(=O)N3Cc3ccccc3)C=C[C@H]1O2", "activity change, negative = inhibition": "inactive: -15.2%"}, {"smiles": "CN(c1ccccc1)S(=O)(=O)c1cccc(NC(=O)C2=NN(c3ccccc3)C(=O)CC2)c1", "Potency": "active: 20.6 µM"}, {"smiles": "CCCCN(C)CCNC(=O)C1CCCN(S(=O)(=O)c2cccc3nsnc23)C1", "note": "(stereo not drawn)", "activity change, negative = inhibition": "inactive: 15.7%"}, {"smiles": "CNC(CC(C)C)C(=O)NC1C(=O)NC(CC(N)=O)C(=O)NC2C(=O)NC3C(=O)NC(C(=O)NC(C(=O)O)c4cc(O)cc(O)c4-c4cc3ccc4O)C(O)c3ccc(c(Cl)c3)Oc3cc2cc(c3OC2OC(CO)C(O)C(O)C2OC2C[C@](C)(N)C(O)C(C)O2)Oc2ccc(cc2Cl)C1O", "note": "(stereo partly drawn)", "activity change, negative = inhibition": "inactive: 9.27%"}, {"smiles": "O=C1N[C@H](Cc2c[nH]c3ccccc23)COC(=O)[C@H](Cc2ccc(F)cc2)C/C=C\\C[C@H]1CC(=O)N(CCO)Cc1ccccc1", "activity change, negative = inhibition": "inactive: -16.1%"}, {"smiles": "COc1cc(/C=N\\Nc2nc3ccccc3[nH]2)cc(OC)c1OC", "Potency": "active: 5.8 µM"}, {"smiles": "CCOC(=O)[C@@H]1[C@H]2COc3cc(OC)ccc3[C@@H]2N2C(=O)N(c3cccc(F)c3)C(=O)[C@]12C", "activity change, negative = inhibition": "inactive: -10%"}, {"smiles": "COc1ccc(OC)c(C2=NS(=O)(=O)N(C)C(C(=O)Nc3ccc(C(C)=O)cc3)=C2)c1", "activity change, negative = inhibition": "inactive: 3.54%"}, {"smiles": "CC(NC(=O)COc1ccccc1)C(=O)OCC(=O)c1cc2ccccc2o1", "note": "(stereo not drawn)", "activity change, negative = inhibition": "inactive: -11.7%"}, {"smiles": "O=C(NCc1ccccc1)C1=C[C@H](c2ccc(Br)cc2)C[C@H](OCc2ccc(CO)cc2)O1", "activity change, negative = inhibition": "inactive: 1.11%"}, {"smiles": "COc1cccc(C2C=C(c3ccccc3)Nc3c(C(=O)Nc4ccccc4)cnn32)c1OC", "note": "(stereo not drawn)", "Potency": "active: 2.31 µM"}, {"smiles": "COC(=O)[C@@]12CCCCN1[C@H](c1ccc(-c3ccc(C(C)=O)cc3)cc1)[C@H]1C(=O)N(C)C(=O)[C@H]12", "activity change, negative = inhibition": "inactive: -10.8%"}, {"smiles": "COc1ccc(NCc2nc3ccccc3n2CCOc2ccc(C)cc2)cc1", "activity change, negative = inhibition": "inactive: 6.81% [at 9.27 µM]"}, {"smiles": "COc1ccc(C)cc1NC(=O)CN1C(=O)COc2ccc(S(=O)(=O)N3CCCCCC3)cc21", "activity change, negative = inhibition": "inactive: -7.7%"}, {"smiles": "CCCOc1ccccc1C1CC(=O)Nc2cc3c(cc21)OCCO3", "note": "(stereo not drawn)", "Potency": "active: 20.6 µM"}]}]}
